The supplement of paper PMC3334620
The full ranking holds about 33,000 sequences; the median of “E-score (-0.5 to 0.5)” is about -0.041, and the highest 2% start at about 0.37. This is one part of the list.

Target: T1, Ecm22 (UniProt Q05958)
T1 sequence: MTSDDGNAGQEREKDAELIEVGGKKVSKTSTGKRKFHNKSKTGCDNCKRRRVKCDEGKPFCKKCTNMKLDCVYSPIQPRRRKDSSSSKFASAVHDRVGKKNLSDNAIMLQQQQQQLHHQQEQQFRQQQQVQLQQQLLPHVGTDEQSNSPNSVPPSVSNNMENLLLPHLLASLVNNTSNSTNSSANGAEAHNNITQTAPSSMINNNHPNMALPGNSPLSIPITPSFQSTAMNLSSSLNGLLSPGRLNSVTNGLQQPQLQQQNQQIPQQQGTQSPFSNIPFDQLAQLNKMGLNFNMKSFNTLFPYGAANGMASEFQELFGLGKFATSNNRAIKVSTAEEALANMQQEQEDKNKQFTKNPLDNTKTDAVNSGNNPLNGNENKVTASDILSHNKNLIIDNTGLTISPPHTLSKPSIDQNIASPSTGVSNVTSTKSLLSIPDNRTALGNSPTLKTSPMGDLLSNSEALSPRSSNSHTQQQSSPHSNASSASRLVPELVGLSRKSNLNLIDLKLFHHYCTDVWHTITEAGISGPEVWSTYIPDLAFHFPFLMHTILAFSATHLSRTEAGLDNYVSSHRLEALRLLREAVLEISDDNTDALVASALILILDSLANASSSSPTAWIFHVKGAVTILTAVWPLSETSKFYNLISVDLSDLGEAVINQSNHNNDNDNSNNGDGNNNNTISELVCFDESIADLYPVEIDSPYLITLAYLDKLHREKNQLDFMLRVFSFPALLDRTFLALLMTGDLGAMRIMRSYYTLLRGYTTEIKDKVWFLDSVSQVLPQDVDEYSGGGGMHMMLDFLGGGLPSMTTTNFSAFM
Assay: PBM E-score (8-mer binding enrichment) (E-score (-0.5 to 0.5)); higher = stronger / more preferred TF binding; most listed sequences are background and not binding sites
Conditions: protein concentration: 200 nM; construct: GST-full length
In short: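 Full-length yeast transcription factors or their DNA-binding domains, GST-tagged and expressed with PURExpress, were applied at about 100-200 nM to universal all-10-mer Agilent arrays. These arrays had been made double-stranded by primer extension on fresh or once-stripped slides. Detection used fluorescent anti-GST, normalisation used masliner, and E-scores for ungapped eight-base words pooled with reverse complements came from the Universal PBM Analysis Suite.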

Sequence	PBM E-score
CTTTTCAA	-0.1
CAAAGAGC	-0.0963
GGAGCCCC	-0.112
ATTCAGCA	-0.119
CGTAGACA	0.118
TGCCCCAA	-0.138
GAGGTTAC	0.0471
CCTTGTGC	-0.193
CGCCGAGC	0.0279
GAAAATAC	0.108
AAATCATG	-0.15
CCGTAAAG	0.323
GGCGCCCA	-0.0786
CTGGTGGA	-0.206
GGGGGAAA	-0.188
CTAAATGC	-0.0645
AAAGGGAA	-0.0636
CAGTATAC	0.204
AACGAATG	0.429
CAAATACG	0.277
CGGGGTTC	0.00936
AGGTTGCA	-0.146
ATCCGAGG	0.187
AAATCGAA	-0.0101
CAGACAAG	-0.0687

Sequence	PBM E-score
GATGGTTA	0.131
CAGGCCAG	0.0615
CCAGGAGG	-0.215
CAACAGAA	-0.195
ATTAGAAG	-0.0466
AATCGATG	0.0335
AAAGGTAC	0.0997
TCCCCCGA	-0.256
ATACTGAG	0.115
CATGTCAC	-0.0003
ATGCGAAG	0.307
CCAAAATA	0.00964
AGGACAGC	-0.0286
GACACCCC	-0.147
CACTAACC	-0.0814
ACAAGTGA	-0.126
CGAAGTGA	0.251
GCGTACTA	0.152
AAGACGAT	0.0227
ATGAGCAA	-0.115
AGCGCGCC	-0.11
AGGGACCA	-0.0619
GCTCCGCC	-0.119
AGTCTACC	-0.156
ACTGTTAG	-0.138

Sequence	PBM E-score
GCACGAGC	0.0624
ACGTTCGG	0.0801
AGAAACAT	0.035
GCATAGAC	-0.0574
CTCAACTC	0.0353
AGAAACTC	0.0214
CCGGTCAC	-0.0785
CCAACGGA	-0.205
ACCATCGG	-0.111
AGCGCACT	-0.0861
GCTACTCA	-0.131
ATACAGGA	0.0363
AACGATCT	0.381
ACCGCGTA	0.175
AAGACGGA	-0.00193
CTCGACCC	-0.0126
TATCTGAA	-0.149
AATTTCGA	-0.036
ATAGGAGC	-0.162
GAAGAGAA	-0.0459
GTAGATTA	0.126
CTAGACAC	-0.163
ATAGGCTA	-0.333
CCTAATTC	-0.124
TGCAGGAA	-0.0414

Sequence	PBM E-score
AAAAACCG	-0.0814
GGACCCCA	-0.0375
ACCTCTAC	0.123
CGGTGCAG	-0.126
CAACTTTC	0.0654
GAGAGGTA	-0.0307
AACAGTTC	0.0451
CTCTTTGC	-0.0305
GTTAACAA	0.0939
GCGCCAAA	-0.0502
GTCGCACA	0.321
GCCTCCGC	-0.0824
ACTCGACG	0.0838
CCTCGGAC	0.246
GCCGTCCC	-0.18
CCGATTAA	0.0979
CGTAACCC	0.257
AATACTTC	-0.137
ACATCGTC	0.0184
CATTGTCC	-0.225
CAAATCAC	0.0334
AGATGCCT	-0.0331
AGTAAACG	0.427
CGATGAAA	0.0778
CATATGGG	-0.0838

Sequence	PBM E-score
CCAGGATC	-0.0711
ATCACTCG	0.236
AGCTGCAG	-0.101
CCTAAAGG	-0.221
GTTTTAGA	-0.149
AGACTGCA	-0.263
AGCAGGTC	-0.0791
AACAGGAA	-0.0582
CATCTGTC	-0.115
CCAGTCCA	-0.325
CCCAAATC	-0.14
GGAGCGCC	-0.173
CCTCCGAC	-0.156
CCACTACC	-0.219
CCCGAGCC	0.157
CTAACACA	0.0887
ATGTTAGA	-0.315
CTATTATA	-0.116
AAGCACTA	0.071
CACTAGGA	-0.238
TATTGGCA	-0.176
GCTCCTTA	-0.122
TCGCCCCA	-0.231
AACTACGA	0.262
AGCTCTAA	-0.194

Sequence	PBM E-score
CTCAAGAG	-0.236
CACTAATA	-0.0153
AGACACCT	-0.153
AGCATGCA	-0.171
ATATTGTA	0.125
CCTTACCG	0.173
ATGTAGAC	-0.213
ATAGTTAG	0.151
TAGGATGA	-0.0177
GTATTGTA	0.18
CAATGATC	0.0322
ATTGGACA	-0.0327
ATAGTACG	0.325
AAGCCAAG	-0.217
CATCGATG	-0.0644
CACACGGA	-0.0352
CTGCGACA	0.059
GGGCTACC	-0.271
ATACCAGG	-0.0891
AGATTAAC	0.155
CCACGGGC	-0.199
ACAATTGA	0.127
ACGCAGAA	0.176
GTTTAAGA	0.184
ACCGCAGC	-0.0492

Sequence	PBM E-score
AGTTTGAA	-0.213
CTCTCAGC	-0.285
CCCGCTCG	0.153
CCGCTGTC	-0.051
CACGTAAG	0.0432
AAGCCTGC	-0.0619
CCAGCAAA	0.101
TATACCGA	0.321
ATTGACAA	-0.176
AAATACTA	-0.0449
AAATTTGC	-0.0929
ATAGCTGG	-0.133
AGGGGCGG	-0.0152
ACCTAGCG	-0.00722
CAATAGGG	-0.0793
CGAGTCCC	0.13
AAACCCAC	0.0248
ACATTGTC	0.124
ATAATCAG	-0.128
CATGGGTA	-0.147
CGTATGAC	0.407
GTCTGGTA	0.00642
TCTACCCA	0.084
GGCTCGAA	0.0317
GATGAAGC	-0.137

Sequence	PBM E-score
GAGGACCC	-0.116
ACCATAGC	-0.261
AAAAATTC	-0.106
ACACGTTA	-0.126
AAAAGCAC	-0.0145
CACGTGCG	0.0495
CACCTCCA	-0.166
TAACAACA	0.144
CTTGTTGC	-0.159
ATTAGCCG	0.128
ACACACAA	-0.00806
CGAGCGCC	0.264
CGAGGACC	0.318
AGCTGAGG	-0.203
CCGGTTCG	0.156
ACCCCTAA	-0.228
ACAAAGGT	-0.0439
ACAAACGT	0.0208
CCAACCGA	0.264
AGGCCCCA	-0.182
GATGCAGA	-0.156
CTAACGAG	0.331
CCTGAACG	0.292
GGATCCTA	0.059
AGCTTTAT	-0.138

Sequence	PBM E-score
ATTTCCAA	-0.0471
CCATCCAG	-0.292
CTCGCGGA	0.0415
AAATAGCA	-0.186
GACATTGA	0.135
CACTAGAC	-0.0964
AGCTCACA	-0.228
ACTGCTAA	-0.357
ATAGTGCA	0.0533
ACGAGCGT	0.389
CGTCTGGA	-0.174
AGCCATGC	-0.17
AGATGGGG	-0.368
AACTTAGA	-0.0444
GTATAGGA	0.232
GCCCCAGC	-0.244
AAGTTCCC	-0.0835
AGGACTTG	-0.303
GCGAAGGA	0.0791
